#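 Grown in 96-well plates, cells were treated for 48 hours with each compound at five concentrations. Insufficient inhibition: endpoint recorded as highest concentration tested. GI50 marks 50% less growth. TGI marks complete inhibition of growth.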
# Tested on: NCI-H322M lung
# Test: NCI anticancer screen, dose series, 48 h
Compound,TGI [µM],GI50 [µM]
COCCOC(=O)C(C)=[N+]=[N-],> 100,–
CCCCNC(=S)/N=C/c1c(O)c2ccccc2[nH]c1=O,> 10,–
COc1ccc2nc(NC(=O)C(=O)C(C#N)c3ccc(Cl)c(Cl)c3)sc2c1 (configuration not stated),> 100,–
CC1=CC(=O)N(c2c(C)cccc2Cl)C(C)N1 (configuration not stated),> 100,–
C=C1c2c(Cl)ccc(O)c2C(O)=C2C(=O)[C@]3(O)C(O)=C(C(N)=O)C(=O)[C@@H](N(C)C)[C@@H]3[C@@H](O)[C@H]12,3.62,0.998
N#Cc1sc2c(c1O)c(=O)n(-c1ccccc1)c(=S)n2-c1ccccc1,> 100,–
COC(=O)[C@@H](C)C[C@H](Cc1ccccc1)NC(=O)c1csc([C@@H](C[C@H](C(C)C)N(C)C(=O)[C@H](C)NC(=O)[C@H]2CCCCN2C)OC(C)=O)n1,> 25,15.8
CCC(Oc1ccc(OC)c2ccccc(=O)c12)C(=O)O (configuration not stated),> 100,–
COC(=O)c1c(-c2ccccc2)c2sc3ccccc3n2c1N,> 100,–
CN(C)CC1CN=C(NC(=O)Nc2ccccc2)O1 (configuration not stated),> 100,–
CCOC(OC1=C(C#N)CCCC1)C(C)[Se]c1ccccc1 (configuration not stated),> 100,–
O=C(CC1C(=O)Nc2ccccc2S1=O)Nc1ccc(Cl)cc1 (configuration not stated),> 100,–
COc1ccc(C2=CC(c3ccc(OC)c(OC)c3)c3c(c4ccccc4oc3=O)O2)cc1OC (configuration not stated),> 100,4.82
COP(=O)(OC)/C(=C\c1cn(C(c2ccccc2)(c2ccccc2)c2ccccc2)cn1)NC(C)=O,> 100,–
O=C1c2ccccc2-c2c1c(-c1cccc(Br)c1)nc1ccc3ccccc3c21,> 100,–
Cc1c(C)c(S(=O)(=O)N(CCCCCON)OCCCN)c(C)c2c1OC(C)(C)CC2,26.3,–
CC[C@@H]1/C=C/C=C/C[C@H](C)[C@@H](O)[C@](C)(O)C(=O)[C@H](C)[C@@H](O)[C@H](C)C(=O)[C@H](C)[C@@H](O)[C@H](C)/C=C/C(=O)O[C@H]2[C@@H](C)[C@@H](CC1)O[C@@]1(CC[C@@H](C)[C@@H](CC(C)O)O1)[C@@H]2C (some centres not stated),12.9,–
CC(C)(C)S(=O)OC12CC3CC(CC(C3)C1)C2 (configuration not stated),> 100,–
Cc1nc(Nc2nc3ccccc3o2)nc(-c2cccc([N+](=O)[O-])c2)c1C(=O)Nc1ccc(F)c(Cl)c1,8.46,2.36
O=C1NCCS(=O)(=O)/C1=C\C=C\c1cccc(C(F)(F)F)c1,12.7,2.91
Cc1cc2c(cc1N)C(C)C1(CCC(=O)N2Cc2ccccc2)OCCO1 (configuration not stated),> 100,–
S=c1[nH]nc(NNc2ccccc2)n1Nc1ccccc1,> 100,–
